As a reminder, the inhibition is the drop in the measured response relative to a control, in per cent.

Each structure is given as a SMILES string. In all, about 340,000 compounds went through this assay and about 6,900 (2%) were called active. No stated cut-off is given here; in the data, active means inhibition above about 30%; inactive means below that, where a call was filed. The list shows a part of the results, in another mix than the full data. Entries without a call were filed so in the source.

The assay addresses D(2) dopamine receptor (Homo sapiens) (UniProt P14416). Put plainly: HTS Assay for Allosteric Antagonists of the Human D2 Dopamine Receptor: Primary Screen for Antagonists. Further: 0% is about no effect. Particulars: HEK293 TREx D2 cells, calcium flux, dopamine EC80; at 10 µM; stronger effect = higher value. An outline of the steps: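 Calcium flux kinetic readout in an inducible HEK293 TREx D2 line plated overnight at 30 C. After 180 s compound exposure, an EC80 dopamine challenge follows with another 180 s kinetic read to detect antagonism.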
UniProt P14416, sequence (P14416 whole entry, looked up): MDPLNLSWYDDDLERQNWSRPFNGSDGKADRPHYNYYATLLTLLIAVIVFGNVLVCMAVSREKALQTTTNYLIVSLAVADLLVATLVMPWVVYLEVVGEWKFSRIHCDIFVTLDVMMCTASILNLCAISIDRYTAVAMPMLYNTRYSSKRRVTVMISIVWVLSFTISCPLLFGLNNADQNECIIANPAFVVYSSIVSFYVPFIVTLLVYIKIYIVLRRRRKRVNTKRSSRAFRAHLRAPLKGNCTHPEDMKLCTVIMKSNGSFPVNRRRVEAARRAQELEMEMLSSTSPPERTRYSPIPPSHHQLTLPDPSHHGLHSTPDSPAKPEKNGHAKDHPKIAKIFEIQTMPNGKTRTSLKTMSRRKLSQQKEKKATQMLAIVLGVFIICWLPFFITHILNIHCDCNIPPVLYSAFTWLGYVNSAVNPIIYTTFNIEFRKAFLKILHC
(In general: Calcium flux is commonly read through the fluorescence of an indicator in the cells.)
On to `CCC(C)NC(=O)CSc1nc2c(sc3ccccc32)c(=O)n1Cc1ccccc1Cl` (stereo not given), for which the inhibition turned out to be 1.31%.
Regarding `Cc1cccc2nc(-c3cccc(NS(=O)(=O)c4ccccc4)c3)cn12`, the inhibition is -3.24%.
For the compound `Cc1ccc(C)c(CSc2nc3ccncc3n2CC(=O)Nc2ccc(N(C)C)cc2)c1`, the inhibition was 4.26%.
The same measure for `Cc1cc(C)c(NC(=O)Nc2ccc3snnc3c2)c(C)c1`: -8.71%; for `Clc1ccccc1CNc1ncnc2c1c(-c1ccccc1)cn2-c1ccccc1`: -7.55%.
The same measure for `Cc1ccc(NC(=O)CSc2nc(-c3ccco3)nc3cc(=O)[nH]n23)cc1C`: 0.683%; for `Cc1ccc(C)c(Cn2c3ccccc3c3cnn(CC(=O)NCc4ccccc4)c(=O)c32)c1`: -0.21%; for `CC1CCN(c2cc3c(cc2F)c(=O)c(S(=O)(=O)c2ccc(Cl)cc2)cn3C)CC1`: 8.16%.
Take `COc1ccc(Nc2nc3c(S(=O)(=O)c4ccc(Br)cc4)nnn3c3ccsc23)c(OC)c1`: the inhibition came out at 1.73%.
On to `CCOC(=O)c1c(NC(=O)c2cc(-c3ccc(Cl)cc3)on2)sc2c1CCCC2`, for which the inhibition came out at 14.1%.
On to `CNS(=O)(=O)c1cc(-c2nn3c(C)nnc3c3ccccc23)ccc1C`, for which the inhibition is -10.3%.
`Cc1ccc(CNc2oc(-c3ccc(COc4ccc(Cl)cc4)o3)nc2C#N)cc1`: the inhibition was found to be 3.05%.
The result for `CCOc1ccc(-c2cc3nc(C4CCN(C(=O)OC(C)(C)C)CC4)c(C(=O)Nc4ccc(C)c(F)c4)cn3n2)cc1` reads -8.29%.
Take `Cc1ccccc1OCc1cc(=O)n2c(-c3ccccc3)csc2n1`: the inhibition was -18.2%.
`CC(C)CCNC(=O)c1cn(C)c2ccc(S(=O)(=O)N3CCCC3)cc2c1=O`: the inhibition is -11.5%.
The same measure for `COc1ccccc1N1CCN(CC(=O)c2c(C)[nH]c3ccccc23)CC1`: active: 30.9%; for `CCN1CCN(CCOc2ccccc2-c2ccccc2)CC1`: active: 86.8%.
In the case of `CCn1cc(C(=O)N2CCN(c3cc(Cl)ccc3C)CC2)c(=O)c2cc(S(=O)(=O)N3CCOCC3)ccc21`, the inhibition was -3.39%.
As for `CCC(=O)N1CCc2cc(Br)cc(S(=O)(=O)N3CCC(C(=O)N(CC)CC)CC3)c21`, the inhibition is 9.31%.
With `COc1cccc(CNC(=O)c2ccc3c(c2)N(C)C(=O)C2CCCCN32)c1` (stereo not given), the inhibition is -7.7%.
On to `CCc1ccc(NC(=O)C2CCC(CNS(=O)(=O)c3cccs3)CC2)cc1` (stereo not given), for which the inhibition stood at 5.69%.
In the case of `Cc1ccccc1NC(=O)c1c(NC(=O)c2ccncc2)sc2c1CCC(C(C)(C)C)C2` (stereo not given), the inhibition was -14.1%.
Regarding `COc1ccccc1NC(=O)C1=C(C)Nc2nc(-c3ccco3)nn2C1c1ccccc1` (stereo not given), the inhibition turned out to be 4.06%.
For `COc1ccccc1N1CCN(Cc2nc(-c3ccc(F)cc3)oc2C)CC1`, the inhibition is active: 80%.
As for `CC1CCN(S(=O)(=O)c2ccc(C(=O)Nc3nc4ccc(F)cc4s3)cc2)CC1`, the inhibition is -7.08%.
On to `CCOc1ccccc1NC(=O)c1cc2cc(C)ccc2n1C`, for which the inhibition was -3.87%.
Regarding `CC(=O)c1ccc(NS(=O)(=O)c2cnc(N)nc2)cc1`, the inhibition was found to be 0.0958%.
On to `Cc1cccc(NC(=O)CSC2=Nc3ccccc3C3=NC(CCC(=O)NCc4ccc(F)cc4)C(=O)N23)c1` (stereo not given), for which the inhibition is -10.7%.
The result for `CC(=O)c1cccc(Nc2ncnc3c2cnn3C)c1` reads -15.5%.
For the compound `O=C(NCCc1ccc(Cl)cc1)c1ccc(Cn2c(=O)[nH]c3ccccc3c2=O)cc1`, the inhibition came out at 8.02%.
The same measure for `CCOc1ccccc1NC(=O)Cc1csc(COc2cccc(C)c2)n1`: 3.04%.
Turning to `Cc1ccc(-n2c3c(c(=O)[nH]c2=O)C(NS(=O)(=O)c2ccc(C)cc2)(C(F)(F)F)C(=O)N3)cc1` (stereo not given), the inhibition was found to be 5.14%.
The result for `CCOc1ccc(CN2C(=O)c3ccccc3Sc3ccc(C(=O)NCCc4ccccc4)cc32)cc1` reads -1.03%; that for `COc1ccc2[nH]cc(CCNC(=O)Nc3cccc(F)c3)c2c1`, 21.7%.
`O=C(CCC1CCCCC1)Nc1ccc(C(=O)c2ccncc2)cc1`: the inhibition was active: 47.7%.
`CC(=O)c1ccccc1OCC(O)CN1CCN(CCN2C(=O)c3cccc4cccc(c34)C2=O)CC1` (stereo not given): the inhibition was active: 36.3%.
In the case of `COc1cccc(CNC(=O)CCc2c(C)nc3c(c2C)c(=O)n(C)c(=O)n3C)c1`, the inhibition is 16.8%.
The same measure for `CCc1ccccc1NC(=O)CSc1ncccc1C(=O)O`: -8.11%; for `OCC1(Cc2ccccc2)CCN(Cc2cnn(-c3ccccc3F)c2)CC1`: active: 31.2%.
Consider `COc1ccc(Nc2ncnc3c2c(-c2ccccc2)cn3-c2ccc(C)c(Cl)c2)cc1OC`, for which the inhibition is -20.8%.
The result for `CCc1ccc(NC(=O)C2CCCN(c3nn4cc(-c5ccc(OC)cc5)nc4s3)C2)cc1` (stereo not given) reads -17.9%; that for `CCOc1ccc(C2C(C(=O)OC)=C(C)NC3=C2C(=O)c2ccccc23)cc1OC` (stereo not given), 2.31%.
As to `Cc1ccc(NC(=O)c2c(C)oc3ccc(O)c(CN4CCCC4)c23)c(C)c1`, the inhibition is 9.7%.
For the compound `Cc1ccc(NC(=S)N2CCN(c3ccccn3)CC2)c(C)c1`, the inhibition was active: 30.9%.
As to `CN(C1CCCCC1)S(=O)(=O)c1ccc2c(c1)c(=O)c(C(=O)NCc1ccccc1Cl)cn2C`, the inhibition was -12.1%.
For `O=C(Nc1ccc(F)cc1Cl)C1CCN(c2ncnc3c2nc2n3CCCCC2)CC1`, the inhibition was -13.3%.
Consider `O=C(NCC(c1ccc2c(c1)OCO2)N1CCN(c2ccc(F)cc2)CC1)c1cccc([N+](=O)[O-])c1` (stereo not given), for which the inhibition was -19%.
`Cc1ccc2onc(CNC(=O)Nc3ccccc3C#N)c2c1`: the inhibition was 4.46%.
As for `Cc1ccc(Oc2coc3cc(OCC(=O)NC4CCCCC4)ccc3c2=O)cc1`, the inhibition was -4.68%.
Regarding `Cc1ccc(NC(=O)C2CC(=O)NC(N3CCc4ccccc43)=N2)cc1` (stereo not given), the inhibition was active: 43.7%.
For `N#Cc1ccc(C(=O)Nc2ccccc2-c2nc3ccccc3s2)c(F)c1`, the inhibition is -15.7%.
The result for `NC(=O)C1CCN(C(=O)NC2CC(=O)N(c3ccc4c(c3)OCCO4)C2)CC1` (stereo not given) reads active: 45.6%; that for `COc1ccc(OCc2ccc(-c3nc(C#N)c(NCc4ccccc4)o3)o2)cc1`, 5.63%; that for `CNS(=O)(=O)c1ccc(NC(=O)c2cnn3c(C(F)F)cc(-c4ccccc4)nc23)cc1`, -10.8%.
Consider `CCOC(=O)Cc1ccc(NC(=O)n2ncc3cc(Cl)ccc32)cc1`, for which the inhibition worked out at 23.8%.
Consider `Cc1c(-c2cccc(NC(=O)c3ccc(F)c(F)c3)c2)nc2ncccn12`, for which the inhibition is -27.8%.
Consider `Cc1nn(C)c2c1c(C(F)(F)F)cc(=O)n2C(C)C(=O)NCCc1ccc(Cl)cc1` (stereo not given), for which the inhibition is 0.697%.
For `CCc1ccccc1NS(=O)(=O)c1ccc2oc(=O)c3ncn(C)c3c2c1`, the inhibition came out at 2.5%.
Consider `COCCOC(=O)c1c(C)oc2c1cc(NS(=O)(=O)c1ccc(Cl)c(C)c1)c1ccccc12`, for which the inhibition was -8.9%.
The same measure for `COC(=O)c1ccc(NS(=O)(=O)c2c(C)nc3sccn3c2=O)cc1`: 1.01%.
Turning to `CSc1ccc(CCNC(=O)c2ccc3c(c2)nc2n3CCCCC2)cc1`, the inhibition was found to be 6.47%.
Regarding `CCOC(=O)Cn1c(=O)n(C2CCCCC2)c2nc(-c3ccc(OCC)cc3)nc(C(N)=O)c21`, the inhibition is -2.44%.
As to `O=C(CSc1nccn1-c1ccc(Cl)cc1)Nc1cccc2ccccc12`, the inhibition stood at 24.3%.
As to `Cc1cc(OCC(=O)Nc2sc3c(c2C#N)CC(C)(C)NC3(C)C)c(C(C)C)cc1Cl`, the inhibition was active: 34.4%.
For the compound `COc1ccc(Cn2ccnc2SCC(=O)NC2CCCC2)cc1`, the inhibition came out at 11.1%.
The same measure for `CC(CCc1ccccc1)NC(=O)Cn1c(=O)nc(-c2ccccc2F)c2cc(Cl)ccc21` (stereo not given): 7.88%; for `C=C1CCN([C@@H](C)C(=O)OCc2cccc(C)c2)S(=O)(=O)c2ccccc21`: active: 31%.
On to `Cc1cccc(C)c1NC(=O)CSc1ncc2c(n1)-c1ccc(Cl)cc1N(Cc1ccccc1)S2(=O)=O`, for which the inhibition is -19%.
The result for `Cc1oc(-c2ccccc2F)nc1CSCC(=O)NCc1ccccc1` reads 5.41%; that for `COc1ccc2c(c1)CC(C(=O)Nc1cccc(C)c1C)CO2` (stereo not given), 5.67%; that for `CC(C)c1ccc(NC(=O)C2CCCN(S(=O)(=O)c3cccc4nsnc34)C2)cc1` (stereo not given), 10.6%.
As to `COc1ccccc1CNS(=O)(=O)c1cc(Br)cc2c1N(C(C)=O)C(C)C2` (stereo not given), the inhibition was -17.7%.
In the case of `CCc1ccc(CNC(=O)C2CCCN(c3nnc(C)c4c(C)n(-c5ccc(OC)cc5)nc34)C2)cc1` (stereo not given), the inhibition was -22.7%.
Consider `Cc1c(C(=O)Nc2ccccc2Cl)sc2ncnc(N(C)C3CCCCC3)c12`, for which the inhibition was 17.7%.
The same measure for `COc1cc(Cl)c(NC(=O)c2cc(CN3CCCC3)on2)c(OC)c1`: -3.71%; for `Cc1ccc(N2CC(c3nnc(Cc4ccc(F)cc4)o3)CC2=O)cc1` (stereo not given): 8.1%.
In the case of `Cc1ccc(CSc2ncc(Cl)c(C(=O)Nc3nc4ccc(C)cc4s3)n2)cc1`, the inhibition was -27.2%.
The same measure for `Oc1c(C(c2ccccc2)N2CCN(c3cccc(Cl)c3)CC2)sc2nc(-c3ccco3)nn12` (stereo not given): 16.2%; for `O=c1c(=O)n(-c2ccccc2)ccn1Cc1cccc(C(F)(F)F)c1`: -9.55%.
Consider `Cc1ccc(NC(=O)c2cc3nc(-c4ccc5c(c4)OCO5)cc(C(F)(F)F)n3n2)cc1Cl`, for which the inhibition came to 3.74%.
Regarding `O=C(NCc1ccc(F)cc1)c1ccc(CS(=O)Cc2ccc(Cl)cc2)o1` (stereo not given), the inhibition is -0.641%.
In the case of `O=C(NCCn1cc(SCc2ccccc2F)c2ccccc21)c1cccs1`, the inhibition worked out at 20%.
`CCc1ccc(CNC(=O)CSc2c3c(nc4ccc(Cl)cc24)CCCC3)cc1`: the inhibition was 13.5%.
Consider `CCS(=O)(=O)NCC(c1ccco1)N1CCN(c2ccccc2)CC1` (stereo not given), for which the inhibition was -14.4%.
In the case of `CSc1nc(Nc2ccc(C)cc2)c(C#N)c(-c2ccccc2)n1`, the inhibition stood at 4.66%.
As for `Cc1ccc2c(c1)C(c1ccccc1)N(C(=O)c1ccc(S(=O)(=O)N3CCCCC3)cc1)CC(=O)N2` (stereo not given), the inhibition was -5.86%.
`Fc1ccc(C(Nc2ccccc2Cl)c2nnc(-c3ccccc3Cl)o2)cc1` (stereo not given): the inhibition stood at 14.7%.
The result for `Cc1ccc(NC(=O)c2cccc(N3CCCS3(=O)=O)c2)cc1C` reads -3.38%.
As to `Cc1ccc(NC(=O)[C@H]2O[C@@H]3OC(C)(C)O[C@@H]3[C@H]3OC(C)(C)O[C@H]32)cc1F`, the inhibition worked out at 1.18%.
Take `CC(C(=O)Nc1ccccc1C(F)(F)F)n1nnc2sc3c(c2c1=O)CCCC3` (stereo not given): the inhibition is 7.28%.
On to `Cc1ccc(NC(=O)CN(C)S(=O)(=O)c2cccc3cccnc23)cc1F`, for which the inhibition worked out at 5.93%.
The result for `Clc1ccccc1CSc1nnc(-c2ccco2)c(-c2ccco2)n1` reads active: 34.6%; that for `CCn1c(=O)c2cc(C(=O)N3CCN(c4cccc(OC)c4)CC3)sc2c2ccccc21`, 21.5%.
The result for `CCOC(=O)Cc1ccc(NC(=O)N2CCc3c(sc4c3CCCC4)C2c2ccc(F)cc2)cc1` (stereo not given) reads -1.8%; that for `COc1ccc(Cl)cc1Nc1nc2ccc(C(=O)c3ccccc3)cc2n2cnnc12`, 13.1%.

Values taken from PubChem BioAssay AID485344 (National Center for Advancing Translational Sciences (NCATS), 2010).
